# A collection of fitness landscapes (doi:10.1016/j.celrep.2020.107928)
# Over roughly 81,000 sequences, “one-hybrid fitness for binding NBS DNA” has its median near -0.1; the highest 2% begin near 0.36. This is one part of the list.
# B1: Caulobacter ParB omega fusion; a variant is named by its letters at X, in order, B8GW30 (parent)
# chain: MESVVVGEPGMSEGRRGLGRGLSALLGEVDAAPAQAPGEQLGGSREAPIEILQRNPDQPRRTFREEDLEDLSNSIREKGVLQPILVRPSPDTAGEYQIVAGERAWRAAQRAGLKTVPIMVRELDDLAVLEIGIIENVQRADLNVLEEALSYKVLMEKFERTQENIAQTIGKSXSHVANXMRLLXLPDEVQSYLVSGELTAXHARAIAAAADPVALAKQIIEGGLSVRETEALARKAPNLSAGKSKGGRPPRVKDTDTQALESDLSSVLGLDVSIDHRGSTGTLTITYATLEQLDDLCNRLTRGI
# Variants of: B1
# Test: one-hybrid fitness for binding NBS DNA (the Noc-binding site; scaled: cognate 1, non-cognate 0); higher = stronger binding
# Settings: with NBS DNA site
# In short: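 In E. coli USO, a HIS3 reporter with its site placed 19 bp from the promoter was used to select Caulobacter ParB variants randomised at four specificity codons. Growth lasted 48 hours at 37°C on histidine-free M9 containing 0.1 mM IPTG and 5 mM 3-AT. Fitness was taken as the log change in variant-to-wild-type read ratio from Illumina sequencing of pre- and post-selection plasmids, rescaled between the non-cognate and cognate sites.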
row,Variant,one-hybrid fitness for binding NBS DNA
1,VAEG,≤ 0.2
2,FSLD,≤ 0.2
3,PHFA,≤ 0.2
4,NKPR,≤ 0.2
5,TFKT,≤ 0.2
6,QSCD,≤ 0.2
7,YINW,≤ 0.2
8,LDPP,≤ 0.2
9,AGVE,≤ 0.2
10,MLHL,≤ 0.2
11,ACER,≤ 0.2
12,TCGT,≤ 0.2
13,CLEC,≤ 0.2
14,KSTG,≤ 0.2
15,PAVG,≤ 0.2
16,FWAT,≤ 0.2
17,MMDR,≤ 0.2
18,WTPL,≤ 0.2
19,ISWG,≤ 0.2
20,MNES,≤ 0.2
21,RYRM,0.213
22,EWGE,≤ 0.2
23,YGLG,≤ 0.2
24,RRPC,0.249

row,Variant,one-hybrid fitness for binding NBS DNA
1,MMKW,≤ 0.2
2,IYWV,≤ 0.2
3,SHNF,≤ 0.2
4,CMAR,≤ 0.2
5,VPPW,≤ 0.2
6,HPLS,≤ 0.2
7,GSAQ,≤ 0.2
8,PVGS,≤ 0.2
9,SPQG,≤ 0.2
10,AWAV,≤ 0.2
11,EECL,≤ 0.2
12,GCLA,≤ 0.2
13,PNTY,≤ 0.2
14,DQMG,≤ 0.2
15,PTHT,≤ 0.2
16,QQSV,≤ 0.2
17,NVYP,≤ 0.2
18,DKLW,≤ 0.2
19,PPFN,≤ 0.2
20,DSPF,≤ 0.2
21,HHWF,≤ 0.2
22,KGRC,≤ 0.2
23,IGIR,≤ 0.2
24,YNSF,≤ 0.2

row,Variant,one-hybrid fitness for binding NBS DNA
1,THGV,≤ 0.2
2,NDES,≤ 0.2
3,RSFE,≤ 0.2
4,GNAG,≤ 0.2
5,GHPH,≤ 0.2
6,QHSE,≤ 0.2
7,SRIY,≤ 0.2
8,ICTW,≤ 0.2
9,CPTR,≤ 0.2
10,WWAR,≤ 0.2
11,TACR,≤ 0.2
12,RLQI,≤ 0.2
13,GPPR,≤ 0.2
14,QSMG,≤ 0.2
15,PWNT,≤ 0.2
16,NLID,≤ 0.2
17,HTWF,≤ 0.2
18,LPEW,≤ 0.2
19,MAMR,≤ 0.2
20,VPVG,≤ 0.2
21,FRWR,≤ 0.2
22,YSCK,≤ 0.2
23,YHYY,≤ 0.2
24,ATKM,≤ 0.2

row,Variant,one-hybrid fitness for binding NBS DNA
1,TFVI,≤ 0.2
2,RDPY,≤ 0.2
3,TNMS,≤ 0.2
4,HKNN,≤ 0.2
5,KRMV,≤ 0.2
6,PNWD,≤ 0.2
7,TRKV,0.208
8,LQDS,≤ 0.2
9,PDER,≤ 0.2
10,EHTG,≤ 0.2
11,DAAV,≤ 0.2
12,AILE,≤ 0.2
13,KRQR,0.552
14,PCMR,≤ 0.2
15,LAVL,≤ 0.2
16,VHMS,≤ 0.2
17,DYPY,≤ 0.2
18,SRNT,0.236
19,RALN,≤ 0.2
20,VVWT,≤ 0.2
21,EQSW,≤ 0.2
22,YEDL,≤ 0.2
23,WRFC,≤ 0.2
24,TKKF,≤ 0.2

row,Variant,one-hybrid fitness for binding NBS DNA
1,HQHC,≤ 0.2
2,PRPR,≤ 0.2
3,SRGD,≤ 0.2
4,SSMI,≤ 0.2
5,ENPS,≤ 0.2
6,PSLN,≤ 0.2
7,QQCN,≤ 0.2
8,HHSV,≤ 0.2
9,MTIS,≤ 0.2
10,LETG,≤ 0.2
11,RPVK,≤ 0.2
12,GSTL,≤ 0.2
13,RCDY,≤ 0.2
14,AHTQ,≤ 0.2
15,MGKG,≤ 0.2
16,LTWR,≤ 0.2
17,RTQD,≤ 0.2
18,HAHR,≤ 0.2
19,RPKY,≤ 0.2
20,DVKA,≤ 0.2
21,DHGF,≤ 0.2
22,TSYD,≤ 0.2
23,ALQR,≤ 0.2
24,HSFF,≤ 0.2

row,Variant,one-hybrid fitness for binding NBS DNA
1,RSVT,0.238
2,RVGW,≤ 0.2
3,KHYN,≤ 0.2
4,YSRR,≤ 0.2
5,EALN,≤ 0.2
6,TAPF,≤ 0.2
7,SPKG,≤ 0.2
8,LAQG,≤ 0.2
9,GKIR,≤ 0.2
10,LKKN,≤ 0.2
11,WDHG,≤ 0.2
12,IRLV,≤ 0.2
13,NRGC,≤ 0.2
14,YEVG,≤ 0.2
15,GVTP,≤ 0.2
16,VKHP,≤ 0.2
17,LYHL,≤ 0.2
18,EPKM,≤ 0.2
19,KNSA,≤ 0.2
20,THDM,≤ 0.2
21,TPGY,≤ 0.2
22,MLHR,≤ 0.2
23,ISAR,0.207
24,EVHL,≤ 0.2

row,Variant,one-hybrid fitness for binding NBS DNA
1,YIFT,≤ 0.2
2,QYHC,≤ 0.2
3,DYDI,≤ 0.2
4,KNHS,≤ 0.2
5,LVLL,≤ 0.2
6,TFVG,≤ 0.2
7,TDFR,≤ 0.2
8,PNRD,≤ 0.2
9,NPHS,≤ 0.2
10,SAFL,≤ 0.2
11,LRTG,≤ 0.2
12,SLCG,≤ 0.2
13,TAEI,≤ 0.2
14,ESDF,≤ 0.2
15,LGYS,≤ 0.2
16,KSRS,≤ 0.2
17,REIR,≤ 0.2
18,QPPE,≤ 0.2
19,PHMK,≤ 0.2
20,QNSP,≤ 0.2
21,NTDT,≤ 0.2
22,PKQF,≤ 0.2
23,KLTR,≤ 0.2
24,RRHT,0.755

row,Variant,one-hybrid fitness for binding NBS DNA
1,YCKA,≤ 0.2
2,QDCW,≤ 0.2
3,TDRC,≤ 0.2
4,LCRG,≤ 0.2
5,YRYR,≤ 0.2
6,RPGS,≤ 0.2
7,KTDE,≤ 0.2
8,YLTA,≤ 0.2
9,PLSE,≤ 0.2
10,WKAC,≤ 0.2
11,DLLT,≤ 0.2
12,LSIL,≤ 0.2
13,TIFG,≤ 0.2
14,QEMI,≤ 0.2
15,KTIL,≤ 0.2
16,GHIG,≤ 0.2
17,RNGA,≤ 0.2
18,AYTY,≤ 0.2
19,WGKE,≤ 0.2
20,LLGT,≤ 0.2
21,QADG,≤ 0.2
22,MFAL,≤ 0.2
23,HILG,≤ 0.2
24,IHLS,≤ 0.2

row,Variant,one-hybrid fitness for binding NBS DNA
1,KHMS,≤ 0.2
2,IQPR,≤ 0.2
3,FCLW,≤ 0.2
4,EGLG,≤ 0.2
5,QRMH,0.499
6,CFFL,≤ 0.2
7,AYHI,≤ 0.2
8,NSVG,≤ 0.2
9,RVYQ,≤ 0.2
10,NNPK,≤ 0.2
11,SRNS,≤ 0.2
12,RSPV,≤ 0.2
13,TLEE,≤ 0.2
14,GLCL,≤ 0.2
15,DWNC,≤ 0.2
16,MPVQ,≤ 0.2
17,YRQE,≤ 0.2
18,HPWM,≤ 0.2
19,SSQN,≤ 0.2
20,LMNC,≤ 0.2
21,TSRI,≤ 0.2
22,PTGR,≤ 0.2
23,EQYS,≤ 0.2
24,TSLS,≤ 0.2

row,Variant,one-hybrid fitness for binding NBS DNA
1,LDFS,≤ 0.2
2,SKHG,≤ 0.2
3,KLTD,≤ 0.2
4,ATFC,≤ 0.2
5,LGSR,≤ 0.2
6,YIRT,≤ 0.2
7,TKLH,≤ 0.2
8,SPGF,≤ 0.2
9,QHMV,≤ 0.2
10,PASP,≤ 0.2
11,NRTH,≤ 0.2
12,STVY,≤ 0.2
13,CRAV,≤ 0.2
14,QVFL,≤ 0.2
15,VMLE,≤ 0.2
16,PYKI,≤ 0.2
17,GYLI,≤ 0.2
18,SCYW,≤ 0.2
19,KDTT,≤ 0.2
20,HRNG,≤ 0.2
21,PVKR,≤ 0.2
22,HRVM,≤ 0.2
23,LSSE,≤ 0.2
24,LYQL,≤ 0.2

row,Variant,one-hybrid fitness for binding NBS DNA
1,HHIT,≤ 0.2
2,NDTL,≤ 0.2
3,HLKP,≤ 0.2
4,NSNL,≤ 0.2
5,EGCI,≤ 0.2
6,ALAW,≤ 0.2
7,RHTW,≤ 0.2
8,SSHM,≤ 0.2
9,AHPR,≤ 0.2
10,QYRW,0.26
11,QQPR,0.365
12,IPPN,≤ 0.2
13,QRAM,0.404
14,ANQN,≤ 0.2
15,AKIK,≤ 0.2
16,NLNI,≤ 0.2
17,RDIE,≤ 0.2
18,WVLA,≤ 0.2
19,LFTG,≤ 0.2
20,PCQV,≤ 0.2
21,FSSS,≤ 0.2
22,EDTL,≤ 0.2
23,KALN,≤ 0.2
24,LTFI,≤ 0.2

row,Variant,one-hybrid fitness for binding NBS DNA
1,VAQR,≤ 0.2
2,ELKF,≤ 0.2
3,HWMG,≤ 0.2
4,NIEV,≤ 0.2
5,HTIT,≤ 0.2
6,HPQK,≤ 0.2
7,PTQH,≤ 0.2
8,KSSP,≤ 0.2
9,AQRH,≤ 0.2
10,GNLV,≤ 0.2
11,LTKY,≤ 0.2
12,TGVA,≤ 0.2
13,QQGE,≤ 0.2
14,CAPW,≤ 0.2
15,PQST,≤ 0.2
16,QTAT,0.595
17,RMRC,0.339
18,LCLG,≤ 0.2
19,RMEM,≤ 0.2
20,SFYG,≤ 0.2
21,FPPK,≤ 0.2
22,TYIP,≤ 0.2
23,TLKC,≤ 0.2
24,DPQS,≤ 0.2

row,Variant,one-hybrid fitness for binding NBS DNA
1,QRFY,0.392
2,TVST,≤ 0.2
3,WLFG,≤ 0.2
4,QHAK,≤ 0.2
5,EQHV,≤ 0.2
6,IGGS,≤ 0.2
7,DRGT,≤ 0.2
8,STHC,≤ 0.2
9,VAQV,≤ 0.2
10,PICC,≤ 0.2
11,EHVL,≤ 0.2
12,QNCM,≤ 0.2
13,CLSR,≤ 0.2
14,GGYS,≤ 0.2
15,LAKC,≤ 0.2
16,IMNC,≤ 0.2
17,ADRK,≤ 0.2
18,EFDG,≤ 0.2
